Over roughly 110,000 compounds, “z-score” has its median near -0.1; the highest 2% begin near 2. The list shows a part of the results. Calls of active or inactive are those of the source.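 Rule for the calls: active = z-score in the third read window above 3 or below -3; inactive = the rest.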
These compounds were tested against Metabotropic glutamate receptor 8 (Rattus norvegicus) (UniProt P70579) (assay: rat mGluR8 modulators via GIRK flux, primary screen, cell-based, thallium flux, HTS (AID 488969)). Conditions: HEK293 rat mGluR8, GIRK (G protein-gated inwardly rectifying potassium channel) thallium flux, FluoZin2; at 10 µM; stronger effect = higher value; submaximal glutamate (EC20) added with thallium.
Sequence of UniProt P70579 (P70579 whole entry, looked up): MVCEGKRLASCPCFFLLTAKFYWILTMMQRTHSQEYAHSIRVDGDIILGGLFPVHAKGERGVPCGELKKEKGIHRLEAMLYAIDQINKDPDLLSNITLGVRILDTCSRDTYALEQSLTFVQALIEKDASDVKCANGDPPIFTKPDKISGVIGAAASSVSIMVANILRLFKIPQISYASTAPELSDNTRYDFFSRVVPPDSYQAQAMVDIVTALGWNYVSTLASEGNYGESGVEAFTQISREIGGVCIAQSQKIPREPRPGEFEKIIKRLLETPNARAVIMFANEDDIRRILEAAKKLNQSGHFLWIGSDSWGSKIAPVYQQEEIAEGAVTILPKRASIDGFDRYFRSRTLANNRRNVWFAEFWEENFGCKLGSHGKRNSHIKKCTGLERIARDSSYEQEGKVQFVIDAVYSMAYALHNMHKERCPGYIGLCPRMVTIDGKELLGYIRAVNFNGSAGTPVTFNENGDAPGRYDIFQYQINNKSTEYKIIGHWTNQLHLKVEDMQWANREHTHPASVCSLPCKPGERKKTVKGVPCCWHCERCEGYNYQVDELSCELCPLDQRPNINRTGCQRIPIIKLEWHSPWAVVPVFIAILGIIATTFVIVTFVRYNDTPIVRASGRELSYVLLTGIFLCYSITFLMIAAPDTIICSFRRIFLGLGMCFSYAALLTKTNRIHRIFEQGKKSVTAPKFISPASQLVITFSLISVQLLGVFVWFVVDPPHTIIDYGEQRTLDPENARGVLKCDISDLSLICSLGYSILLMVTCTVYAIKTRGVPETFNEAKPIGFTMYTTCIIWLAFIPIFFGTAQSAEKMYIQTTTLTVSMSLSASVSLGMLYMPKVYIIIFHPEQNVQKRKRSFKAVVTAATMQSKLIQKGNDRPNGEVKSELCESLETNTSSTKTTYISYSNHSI

| SMILES | z-score |
| --- | --- |
| O=c1nc2c(O)cccn2c2c1c(=O)[nH]c1ccccc12 | -0.904 |
| COc1ccccc1-c1ccc(NC2CCCC2)nn1 | -0.624 |
| Cn1c(SCC(=O)NCc2cccs2)nnc1-c1cccs1 | 0.0897 |
| Nc1nc2ccc(-c3nc4ccccc4o3)cc2s1 | -0.112 |
| O=C(CSc1nc2ccccc2n1Cc1ccccc1)N/N=C/c1ccco1 | -0.329 |
| Cc1ccnc(NC(=O)CCC(=O)N(CC(=O)NC2CCCCC2)c2cccc(C)c2C)c1 | -0.622 |
| Cc1cc(=O)[nH]c(SCC(=O)Nc2nc(-c3ccccc3)c(-c3ccccc3)o2)n1 | -1.38 |
| O=C1OC(c2ccccc2)/C(=C(/O)c2ccccc2)C1=O (stereo not given) | -2.65 |
| Cn1c(-c2sc(=S)n(-c3ccccc3)c2N)nc2ccccc21 | 0.156 |
| CCCCC(=O)N1CC2(C)CN(C(=O)CCCC)CC(C)(C1)C2=O | 0.492 |
| COc1ccc(-c2nc(C#N)c(N3CCCCCC3)o2)cc1OC | -0.645 |
| Cc1sc(NC(=O)CSc2nnc(CCNC(=O)c3cccs3)n2C)nc1-c1ccccc1 | -0.167 |
| C=CCOc1c(CNc2cccc(C(=O)O)c2)cccc1OCC | -0.167 |
| CCN(CC(=O)NC(C)(C)C)C(=O)CCl | -0.355 |
| CCOC(=O)C(=Cc1ccc(-c2ccsc2C(=O)OC)o1)C(=O)OCC | -0.148 |
| CCn1c(SCC(=O)NCC(=O)Nc2ccc(F)cc2)nnc1-c1ccncc1 | -0.775 |
| O=C(NC1CCCCCC1)c1cc(S(=O)(=O)N2CCOCC2)ccc1N1CCCCC1 | -0.356 |
| COCCN1C(=O)c2ccccc2C(C(=O)NCCN(C)C)C1c1ccc(F)cc1 (stereo not given) | 0.0583 |
| CN(C)CC(=O)Nc1nc(-c2ccccc2)cs1 | 0.193 |
| COc1ccc(C)cc1NC(=O)C(OC(=O)CNC(=O)c1ccc(Oc2ccccc2)cc1)c1ccccc1 (stereo not given) | 0.0343 |
| COc1ccc(N(CN2C(=O)C3CC=CCC3C2=O)C(=O)c2ccco2)cc1 (stereo not given) | -0.221 |
| C=CCc1ccccc1OCC(O)CN1CCN(c2ccccc2OC)CC1 (stereo not given) | -0.754 |
| N#C/C(=C\Nc1ccc2c(c1)OCCO2)c1nc2ccccc2[nH]1 | -0.254 |
| O=C(CCCc1nc(-c2ccc(Cl)cc2)no1)Nc1cccnc1 | 1.77 |

| SMILES | z-score |
| --- | --- |
| O=C(O)C1CCCCC1C(=O)Nc1ccc(Cl)cc1 (stereo not given) | -0.515 |
| CCOc1ccc(C(=O)Nc2cc(C)c3c(=O)oc4ccccc4c3n2)cc1 | -0.345 |
| O=C(COC(=O)C1COc2ccccc2O1)NC(=O)NC1CCCCC1 (stereo not given) | -0.171 |
| Clc1ccc(N2CCCCCC2)nn1 | 0.0183 |
| COc1ccc(C(=O)OC2CCN(C)CC2)cc1 | 0.429 |
| Cn1c(=O)c(=O)n(C)c2cc(S(=O)(=O)N3CCOCC3)ccc21 | 0.162 |
| O=C(Nc1cccc(Cl)c1N1CCCC1)c1ccc(Br)o1 | 0.567 |
| Cc1ccc2nc(-c3ccncc3)cc(-c3ccccc3)c2c1 | -0.221 |
| CCc1ccc(C(=O)COC(=O)CNC(=O)c2ccc(N3C(=O)c4ccccc4C3=O)cc2)cc1 | -0.209 |
| Cc1coc2c1c(C)cc1oc(=O)c(Cc3ccccc3)c(C)c12 | -0.0677 |
| Cc1cc(Br)ccc1NC(=O)C(C)c1ccc([N+](=O)[O-])cc1 (stereo not given) | -0.0761 |
| CCN(CC)CCCN1C(=O)C(=O)/C(=C(/O)c2ccc3c(c2)OCCO3)C1c1ccco1 (stereo not given) | 0.529 |
| Cc1ccccc1Nc1n[nH]c(C)c1[N+](=O)[O-] | -0.305 |
| O=C(CN(c1ccc(F)cc1)S(=O)(=O)c1ccc2c(c1)OCCO2)NCc1cccnc1 | 0.0905 |
| COc1ccc(NS(=O)(=O)c2ccc(NC(=S)NC(=O)c3ccc(Br)cc3)cc2)nn1 | -0.0905 |
| COc1ccc(/C=N/NC(=O)OC(C)(C)C)cc1OC | -0.181 |
| N/C(=N\OC(=O)C1CCCCC1)c1ccccn1 | 0.187 |
| O=C(/C=C/c1ccc([N+](=O)[O-])cc1)NCc1ccco1 | -0.0236 |
| CC(O)CNc1nc2c(c(=O)n(C)c(=O)n2C)n1Cc1cccc(C(F)(F)F)c1 (stereo not given) | 0.369 |
| CCC(C)C(=O)Nc1nc(C)c(-c2csc(Nc3ccc(Cl)cc3)n2)s1 (stereo not given) | 0.225 |
| COc1ccc(-n2c(-c3ccccc3)nnc2-c2ccc(Cl)cc2)cc1 | 1.13 |
| CC(=O)c1cnn(-c2cc(Oc3ccccc3C)ncn2)c1C | 0.0466 |
| CNC(=S)Nc1cc(Cl)ccc1Oc1ccccc1 | 0.287 |
| O=C(Nc1ccc(-c2nc3ccccc3o2)cc1)c1ccc(N2C(=O)C3C4C=CC(C4)C3C2=O)cc1 (stereo not given) | -0.241 |

| SMILES | z-score |
| --- | --- |
| COc1ccc([N+](=O)[O-])cc1NC(=O)CSc1ccc2ccccc2c1 | -0.127 |
| O=C(NNC(=S)Nc1ccccc1)c1cccc(Br)c1 | active: 3.98 |
| N#Cc1c(-c2ccncc2)c2c([nH]c1=S)CCCC2 | -0.164 |
| O=C(Nc1ccc(F)cc1)Nc1ccccc1NS(=O)(=O)c1cccs1 | 0.235 |
| CN1CCN(CCP(=O)(c2ccccc2)c2ccccc2)CC1 | 0.661 |
| c1ccc(-c2nc(NCc3ccco3)c3ccccc3n2)cc1 | -2.27 |
| Cc1cc(Cl)c(S(=O)(=O)NC2CCCC2)cc1OCC(=O)NC1CCCCC1 | -0.0633 |
| O=C(CCSCCC(=O)NCC1CCCO1)NCC1CCCO1 (stereo not given) | 0.111 |
| COc1ccc(N(C)C2=NS(=O)(=O)c3ccccc32)cc1 | 0.577 |
| O=C(CN1CCC(c2nc3ccccc3[nH]2)CC1)NCc1ccc2c(c1)OCO2 | -0.271 |
| Cc1ccc2nc(SCC(=O)Nc3ccc4sc(C)nc4c3)c(C#N)cc2c1 | 0.184 |
| COc1nc2ccc(C)cc2cc1-c1noc(-c2ccccc2)n1 | -0.186 |
| CC(=O)/C(=N\Nc1cccc(Cl)c1)Sc1nnc(-c2ccccc2)n1-c1ccccc1 | -0.0247 |
| O=C(NCCN1CCOCC1)c1ccc2c(c1)N(Cc1ccccc1)C(=O)CS2 | -0.416 |
| CCOC(=O)c1c(C)[nH]c(C)c1C(=O)CSc1nc2ccccc2[nH]1 | -0.0721 |
| O=S(=O)(c1ccccc1)N1CCC(n2nnc3cc(F)ccc32)CC1 | -0.132 |
| CC1(C)Cc2c(sc3nnn(Cc4ccc(Cl)cc4)c(=O)c23)CO1 | 0.796 |
| CC1=C(C(=O)OCc2ccc3c(c2)OCO3)C(c2ccc(F)cc2)NC(=O)N1 (stereo not given) | -0.646 |
| CCC(=O)c1ccc(OCC(O)CN2CCN(c3cccc(C(F)(F)F)c3)CC2)cc1 (stereo not given) | 1.05 |
| O=C(Nc1cccn(Cc2ccccc2)c1=O)NC1CCCCC1 | -0.501 |
| O=C(Nc1ccc(F)cc1)C1CCC(N2C(=O)c3ccccc3C2=O)CC1 (stereo not given) | -0.473 |
| CC(=O)Nc1ccc(NC(=S)NC(=O)c2cc3ccccc3o2)cc1 | 0.734 |
